{"source": "PubChem BioAssay (NCATS)", "note": "The shares of active, inactive and inconclusive entries below differ from those in the screen. Where a call stands in place of a potency, no number is given. Potencies beside an inconclusive call are fits to weak or partial responses and may not hold up. Active and inactive are the calls of the source. Calls follow the shape of the dose curve; as a rule, active = well fitted cell-killing curve with a large enough effect; inconclusive = small, poorly fitted or top-dose-only effect, or effect the other way; inactive = no such curve, though single readings can be large or run the other way. Potency is read from the fitted curve at half-maximal effect; tags tell the direction and shape of the fitted curve.", "data": [{"experiment": "Viability qHTS for spleen associated tyrosine kinase inhibitor (SYKi) naive MV4-11 cells (AID 1963823); also: nearly all actives have a fitted effect of over 40% in size", "conditions": "MV4-11 AML viability, CellTiter-Glo luminescence, 72 h; viability (% of control): at 45 µM (top of the series)", "summary_of_the_method": "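Compounds were dispensed acoustically onto plates, MV4-11 cells (SYKi-naive) added at 500 per well, and plates incubated 72 hr at 37 C. CellTiter-Glo was added and luminescence measured after 10 min.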", "values": [{"smiles": "C[C@@H]1CC[C@]2(C(=O)O)CC[C@]3(C(=O)O)C(=CCC4[C@@]5(C)CC[C@H](O[C@@H]6O[C@@H](C)[C@H](O[C@@H]7O[C@H](CO)[C@@H](O)[C@H](O)[C@H]7O)[C@@H](O)[C@H]6O)C(C)(C)C5CC[C@]43C)C2[C@H]1C", "note": "(some centres not stated)", "Potency": "inactive"}, {"smiles": "O=C(O[C@@H]1O[C@H](CO)[C@@H](O)[C@H](O)[C@H]1O)c1c(O)cc(O)cc1/C=C/c1ccccc1", "Potency": "inactive"}, {"smiles": "NC1=N[C@@]2(c3cc(NC(=O)c4ccc(F)cn4)ccc3F)COC[C@H]2CS1", "Potency": "inactive"}, {"smiles": "CC(C)(C)n1nc(-c2cccc3ccccc23)c2c(N)ncnc21", "Potency": "inconclusive: 14.6 µM [cytotoxic, partial curve]"}, {"smiles": "C=CCN(/C=C1\\C(=O)OC(COC)C2(C)C1=C(O)C(=O)C1=C2C(OC(C)=O)CC2(C)C(=O)CCC12)CC=C", "note": "(configuration not stated)", "Potency": "active: 13 µM"}, {"smiles": "OCC(Cc1ccccc1)Nc1nc(Oc2ccc3c(c2)CCC3)nc2c1ncn2Cc1ccc(-c2ccccc2)cc1", "note": "(configuration not stated)", "Potency": "active: 18.4 µM"}, {"smiles": "Cc1ccc(-c2ccccc2C#N)cc1", "Potency": "inactive"}, {"smiles": "COC(=O)C1(O)C(OC(C)=O)CCC2C3(CC(c4ccoc4)OC3=O)C(C)=CCC21C(=O)OC", "note": "(configuration not stated)", "Potency": "inactive"}, {"smiles": "CC1(C)CCCC2(C)C1C(=O)C=C(C(=O)O)C2(O)C(=O)O", "note": "(configuration not stated)", "Potency": "inconclusive: 20.6 µM [cytotoxic, single point]"}, {"smiles": "CC(=O)C1=CCC2C3CC=C4CC(O)CC(O)C4(C)C3C(O)CC12C", "note": "(configuration not stated)", "Potency": "inconclusive: 14.3 µM [cytotoxic, single point]"}, {"smiles": "COc1c(C(C)C)c(O)c(O)c2c1C(OC)[C@H]1OC(=O)[C@@]23CCCC(C)(C)[C@H]13", "note": "(some centres not stated)", "Potency": "inconclusive: 11.4 µM [cytotoxic, single point]"}, {"smiles": "COc1ccc(S(=O)(=O)N(CCO)c2ccccc2CN(C)C/C=C/c2ccc(Cl)cc2)cc1", "Potency": "active: 4.68 µM"}, {"smiles": "O=C(c1ccc2nccnc2c1)N1CCCCC1", "Potency": "inactive"}, {"smiles": "CC(=O)N(CC(=O)N(C)C)c1ccccc1", "Potency": "inconclusive: 29.9 µM [cytotoxic, single point]"}, {"smiles": "COc1cc(C(C)C)c(Oc2cnc(N)nc2N)cc1I", "Potency": "active: 10.3 µM"}, {"smiles": "CC(C)=CCC[C@@](C)(O)[C@H]1CC[C@]2(C)[C@@H]1[C@H](O)CC1[C@@]3(C)CC[C@H](O[C@@H]4O[C@H](CO)[C@@H](O)[C@H](O)[C@H]4O[C@@H]4O[C@H](CO)[C@@H](O)[C@H](O)[C@H]4O)C(C)(C)[C@@H]3CC[C@]12C", "note": "(some centres not stated)", "Potency": "inactive"}, {"smiles": "CC1CCC2(NC1)OC1C(=O)C3C4CCC5CC(O[C@@H]6O[C@H](CO)[C@@H](O)[C@H](O)[C@H]6O[C@@H]6O[C@@H](C)[C@H](O)[C@@H](O)[C@H]6O)CCC5(C)C4CCC3(C)C1C2C", "note": "(some centres not stated)", "Potency": "inactive"}, {"smiles": "CCCCCCCCCCCCCCCC[n+]1ccccc1", "Potency": "active: 0.668 µM"}, {"smiles": "COC(=O)/C=C/C=C/C(=O)OC1C=C2COC(=O)C2(O)C2(C)CCCC(C)(C)C12", "note": "(configuration not stated)", "Potency": "inconclusive: 8.93 µM [cytotoxic, partial curve]"}, {"smiles": "COc1cc(/C=C2\\CC[C@H]3COC[C@@H](c4cc(F)c(F)c(F)c4)N3C2=O)ccc1-n1cnc(C)c1", "Potency": "inconclusive: 14.6 µM [cytotoxic, partial curve]"}, {"smiles": "COc1cc2c(cc1O)C1(Cc3ccc4c(c3C1=O)OCO4)N(C)CC2", "note": "(configuration not stated)", "Potency": "inactive"}, {"smiles": "COc1cc(C(=O)NCc2ccc(OCCN(C)C)cc2)cc(OC)c1OC", "Potency": "inactive"}, {"smiles": "CC(C)CN(C[C@@H](O)[C@H](Cc1ccccc1)NC(=O)O[C@@H]1CO[C@H]2OCC[C@H]21)S(=O)(=O)c1ccc(N)cc1", "Potency": "inactive"}, {"smiles": "C=C[C@H]1[C@H](O[C@@H]2O[C@H](CO)[C@@H](O)[C@H](O)[C@H]2O)OC=C2C(=O)OCC[C@]21O", "Potency": "inactive"}, {"smiles": "C=C1[C@H]2[C@H](O[C@@H]3O[C@H](COC(=O)/C=C/c4cc(OC)c(O)c(OC)c4)[C@@H](O)[C@H](O)[C@H]3O)OC=C(C(=O)O)[C@H]2C[C@@H]1O", "Potency": "inactive"}, {"smiles": "CC(CCC1(O)OC2CC3C4CCC5CC(O[C@@H]6O[C@H](CO)[C@@H](O)[C@H](O)[C@H]6O[C@@H]6O[C@@H](C)[C@H](O)[C@@H](O)[C@H]6O)C(O)CC5(C)C4CCC3(C)C2C1C)CO[C@@H]1O[C@H](CO)[C@@H](O)[C@H](O)[C@H]1O", "note": "(some centres not stated)", "viability (% of control)": "inactive: 87.7% [at 9.25 µM]"}, {"smiles": "CC(C)(O)/C=C1/C(=O)C(C)(C)C(=O)C(C)(C)C1(O)O[C@@H]1O[C@H](COC(=O)c2cc(O)c(O)c(O)c2)[C@@H](O)[C@H](O)[C@H]1O", "note": "(some centres not stated)", "Potency": "inactive"}]}]}
